According to the supplement of paper PMC8728848:
The list shows a part of the results.

Columns and labels:
Test in all cases: glycan array binding signal (z-score within array); higher = stronger binding
Details in all cases: glycan notation: IUPAC condensed, linker removed
Fuc(a1-2)Gal = target: Fuc(a1-2)Gal
Procedure, shortened: (§1)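 Glycan array data were curated from 3228 arrays in the Consortium for Functional Glycomics database and kept only where the protein sequence was available. Glycan names were converted to IUPAC-condensed notation, and columns mapping to the same glycan were averaged. The binding signal is a within-array Z-score, averaged across arrays of the same protein sequence at different concentrations or buffers and across linkers. Negative Z-scores can be read as non-binding.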

Fuc(a1-2)Gal(b1-3)GalNAc = target: Fuc(a1-2)Gal(b1-3)GalNAc
Procedure, shortened: as §1

[1] = target: Fuc(a1-2)Gal(b1-3)GalNAc(a1-3)[Fuc(a1-2)]Gal(b1-4)Glc
Procedure, shortened: as §1

[2] = target: Fuc(a1-2)Gal(b1-3)GalNAc(a1-3)[Fuc(a1-2)]Gal(b1-4)GlcNAc
Procedure, shortened: as §1

[3] = target: Fuc(a1-2)Gal(b1-3)GalNAc(b1-3)Gal
Procedure, shortened: as §1

[4] = target: Fuc(a1-2)Gal(b1-3)GalNAc(b1-3)Gal(a1-4)Gal(b1-4)Glc
Procedure, shortened: as §1

[5] = target: Fuc(a1-2)Gal(b1-3)GalNAc(b1-4)[Neu5Ac(a2-3)]Gal(b1-4)Glc
Procedure, shortened: as §1

Fuc(a1-2)Gal(b1-3)GlcNAc = target: Fuc(a1-2)Gal(b1-3)GlcNAc
Procedure, shortened: as §1

[6] = target: Fuc(a1-2)Gal(b1-3)GlcNAc(b1-2)Man(a1-3)[Fuc(a1-2)Gal(b1-3)GlcNAc(b1-2)Man(a1-6)]Man(b1-4)GlcNAc(b1-4)GlcNAc
Procedure, shortened: as §1

[7] = target: Fuc(a1-2)Gal(b1-3)GlcNAc(b1-2)Man(a1-3)[Fuc(a1-2)Gal(b1-3)GlcNAc(b1-2)Man(a1-6)]Man(b1-4)GlcNAc(b1-4)[Fuc(a1-6)]GlcNAc
Procedure, shortened: as §1

[8] = target: Fuc(a1-2)Gal(b1-3)GlcNAc(b1-3)Gal(b1-4)Glc
Procedure, shortened: as §1

[9] = target: Fuc(a1-2)Gal(b1-3)GlcNAc(b1-3)GalNAc
Procedure, shortened: as §1

[10] = target: Fuc(a1-2)Gal(b1-3)GlcNAc(b1-3)[Fuc(a1-2)Gal(b1-3)GlcNAc(b1-6)]GalNAc
Procedure, shortened: as §1

[11] = target: Fuc(a1-2)Gal(b1-3)GlcNAc(b1-3)[Gal(b1-4)GlcNAc(b1-6)]Gal(b1-4)Glc
Procedure, shortened: as §1

[12] = target: Fuc(a1-2)Gal(b1-3)GlcNAc(b1-3)[Neu5Ac(a2-6)Gal(b1-4)GlcNAc(b1-6)]Gal(b1-4)Glc
Procedure, shortened: as §1

[13] = target: Fuc(a1-2)Gal(b1-3)GlcNAc6S
Procedure, shortened: as §1

[14] = target: Fuc(a1-2)Gal(b1-3)[Fuc(a1-4)]GlcNAc
Procedure, shortened: as §1

[15] = target: Fuc(a1-2)Gal(b1-3)[Fuc(a1-4)]GlcNAc(b1-2)Man(a1-3)[Fuc(a1-2)Gal(b1-3)[Fuc(a1-4)]GlcNAc(b1-2)Man(a1-3)]Man(b1-4)GlcNAc(b1-4)GlcNAc
Procedure, shortened: as §1

[16] = target: Fuc(a1-2)Gal(b1-3)[Fuc(a1-4)]GlcNAc(b1-2)Man(a1-3)[Fuc(a1-2)Gal(b1-3)[Fuc(a1-4)]GlcNAc(b1-2)Man(a1-6)]Man(b1-4)GlcNAc(b1-4)[Fuc(a1-6)]GlcNAc(b1-4)[Fuc(a1-6)]GlcNAc
Procedure, shortened: as §1

[17] = target: Fuc(a1-2)Gal(b1-3)[Fuc(a1-4)]GlcNAc(b1-3)[Fuc(a1-3)[Gal(b1-4)]GlcNAc(b1-6)]Gal(b1-4)Glc
Procedure, shortened: as §1

[18] = target: Fuc(a1-2)Gal(b1-3)[Fuc(a1-4)]GlcNAc(b1-3)[Gal(b1-4)GlcNAc(b1-6)]Gal(b1-4)Glc
Procedure, shortened: as §1

[19] = target: Fuc(a1-2)Gal(b1-4)Fuc(a1-3)]GlcNAc(b1-2)Man(a1-3)[Fuc(a1-2)Gal(b1-4)[Fuc(a1-3)]GlcNAc(b1-2)Man(a1-6)]Man(b1-4)GlcNAc(b1-4)GlcNAc
Procedure, shortened: as §1

Fuc(a1-2)Gal(b1-4)Glc = target: Fuc(a1-2)Gal(b1-4)Glc
Procedure, shortened: as §1

Fuc(a1-2)Gal(b1-4)Glc6S = target: Fuc(a1-2)Gal(b1-4)Glc6S
Procedure, shortened: as §1

Fuc(a1-2)Gal(b1-4)GlcNAc = target: Fuc(a1-2)Gal(b1-4)GlcNAc
Procedure, shortened: as §1

[20] = target: Fuc(a1-2)Gal(b1-4)GlcNAc(b1-2)Man
Procedure, shortened: as §1

[21] = target: Fuc(a1-2)Gal(b1-4)GlcNAc(b1-2)Man(a1-3)[Fuc(a1-2)Gal(b1-4)GlcNAc(b1-2)Man(a1-6)]Man(b1-4)GlcNAc(b1-4)GlcNAc
Procedure, shortened: as §1

[22] = target: Fuc(a1-2)Gal(b1-4)GlcNAc(b1-2)Man(a1-3)[Fuc(a1-2)Gal(b1-4)GlcNAc(b1-2)Man(a1-6)]Man(b1-4)GlcNAc(b1-4)[Fuc(a1-6)]GlcNAc
Procedure, shortened: as §1

[23] = target: Fuc(a1-2)Gal(b1-4)GlcNAc(b1-2)[Fuc(a1-2)Gal(b1-4)GlcNAc(b1-4)]Man(a1-3)[Fuc(a1-2)Gal(b1-4)GlcNAc(b1-2)Man(a1-6)]Man(b1-4)GlcNAc(b1-4)GlcNAc
Procedure, shortened: as §1

[24] = target: Fuc(a1-2)Gal(b1-4)GlcNAc(b1-3)Gal(b1-4)GlcNAc
Procedure, shortened: as §1

B1: Epa1to9 (Candida glabrata) (protein)
chain: MGSSHHHHHHSSGLVPRGSHMTSSNDISLASKDPTTFPLGCSPDITTPKKGLSMELYSYDFRKKGSYPCWDAAYLDPNYPRTGYKSHRLLAKVDGVTGNINFYYHATKGCTPQLGHLPASYNYPKPLTMTNFTMLLYGYFRPKVTGFHTFTISADDLLFVNFGAGNAFDCCRRDSSADHFGNYQAYAIWGSKTAKDELTVHLDAGVYYPIRLFYNNRDYHGALSFTFKTESNENTVSDFSEYFFSLDDTEEGCPGLISYD
Fuc(a1-2)Gal
  glycan array binding signal (z-score): -0.439
Fuc(a1-2)Gal(b1-3)GalNAc
  glycan array binding signal (z-score): -0.3
[1]
  glycan array binding signal (z-score): -0.35
[2]
  glycan array binding signal (z-score): -0.188
[3]
  glycan array binding signal (z-score): -0.298
[4]
  glycan array binding signal (z-score): -0.308
[5]
  glycan array binding signal (z-score): -0.155
Fuc(a1-2)Gal(b1-3)GlcNAc
  glycan array binding signal (z-score): -0.347
[6]
  glycan array binding signal (z-score): -0.355
[7]
  glycan array binding signal (z-score): -0.333
[8]
  glycan array binding signal (z-score): -0.354
[9]
  glycan array binding signal (z-score): -0.349
[10]
  glycan array binding signal (z-score): -0.146
[11]
  glycan array binding signal (z-score): -0.07
[12]
  glycan array binding signal (z-score): -0.223
[13]
  glycan array binding signal (z-score): -0.286
[14]
  glycan array binding signal (z-score): -0.354
[15]
  glycan array binding signal (z-score): -0.263
[16]
  glycan array binding signal (z-score): -0.309
[17]
  glycan array binding signal (z-score): -1.69
[18]
  glycan array binding signal (z-score): 0.003
[19]
  glycan array binding signal (z-score): -0.268
Fuc(a1-2)Gal(b1-4)Glc
  glycan array binding signal (z-score): -0.307
Fuc(a1-2)Gal(b1-4)Glc6S
  glycan array binding signal (z-score): -0.22
Fuc(a1-2)Gal(b1-4)GlcNAc
  glycan array binding signal (z-score): -0.322
[20]
  glycan array binding signal (z-score): -0.323
[21]
  glycan array binding signal (z-score): -0.329
[22]
  glycan array binding signal (z-score): -0.297
[23]
  glycan array binding signal (z-score): -0.356
[24]
  glycan array binding signal (z-score): -0.347
